The supplement of paper PMC10126150
Values marked as one replicate rest on one cluster of the flow cell; about a third of the high ones do not repeat.

These sequences were tested on ATP (assay: switch fluorescence ratio, 500 uM ATP over buffer (Cy3 cluster intensity, sum of 5 cycles each) (fold (ratio)); higher = stronger signal-on switching upon ATP binding; sequences stand for … in TCGTCGGCAGCGTCAGATGTGTATAAGAGACAGTTTTTTTTTTTTTTTTTTTTTTTTT…TC). Details: aptamer strand: ATP DNA aptamer (quencher-CACCTGGGGGAGTATTGCGGAGGAAGG + anchor), 100 nM annealed; ATP concentration: 500 uM; one replicate.
In short: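 Imaging in selection buffer was followed by imaging after 15 min with 500 uM ATP at 22 °C, for Cy3-labelled switching-strand clusters annealed to 100 nM quencher-labelled ATP aptamer on a modified Illumina MiSeq flow-cell. Five of these buffer/ATP cycles ran, separated by NaOH stripping and re-annealing. The fluorescence ratio per cluster is summed target-cycle over summed buffer-cycle Cy3 intensity, averaged per switch-domain sequence; clusters outside 100-1000 RFU were removed.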
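Note: ATP exposure 15 min at 22 °C before imaging.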

Row | Sequence | switch fluorescence ratio
1 | TCTTTAGAAT | 0.962
2 | CATAGCTAAA | 1.03
3 | CACGACCACT | 1.36
4 | TCTCGCATGT | 1.54
5 | TATACCACCC | 1.2
6 | ATGCTGCCCT | 1.03
7 | CTGGGTATA | 1.01
8 | TCCATCTGGT | 0.993
9 | AAGTACCG | 1.11
10 | TTACGAAATT | 0.975
11 | AAGGGACCTG | 1.01
12 | CTATGCAAAT | 1.38
13 | ACGTGTCGCG | 1.04
14 | AGCACTTGGT | 1.04
15 | TTCTCAAGT | 1.01
16 | AATTTCAAAT | 1
17 | GCGTGTCGT | 1.03
18 | GAAGATGTGT | 1.01
19 | CTGGGAGCA | 1.17
20 | GCGTGATTAG | 1.07
21 | GCAAGCGTGC | 1.01
22 | TGCCGAGCCG | 1.06
23 | TCGGCCAAGA | 1.06
24 | ATGTGCACA | 1.03
25 | GAGGCTTTTG | 1.02
26 | GCACGTAAA | 1.22

Row | Sequence | switch fluorescence ratio
27 | TGATACGCT | 1.11
28 | ATTGGTTCC | 1.11
29 | TACTCTCGAG | 1.02
30 | AGATGATACC | 1.02
31 | TTCATAGCAG | 0.999
32 | ATTGACTCTA | 1.11
33 | CGTGATATGC | 1.24
34 | GGGTGTATAC | 1.03
35 | ACTTGTCACG | 1.12
36 | ATCCCAGTAT | 1.06
37 | ATATTACTGG | 1.07
38 | ACTCATGATA | 1.03
39 | AAACTCTCCG | 1.49
40 | TTTGTATTC | 1.08
41 | CGGCATCATG | 1.04
42 | AAGGGATGAC | 0.979
43 | GTGACCGCCT | 1.04
44 | CATTGGGAGG | 1.03
45 | GTCAACTGCG | 0.992
46 | TAGCTTGGTT | 0.973
47 | CGCATTCGTA | 1.02
48 | TGGTGGGTTG | 0.985
49 | ATCTGACATT | 1.03
50 | ACTGGCACTT | 1.15
51 | GCACTGTTCG | 0.959
52 | TCCTGCGGCG | 1.02

Row | Sequence | switch fluorescence ratio
53 | GAGAGAGTCG | 1.02
54 | CCGAATGGTT | 0.982
55 | TCCACTCATT | 1.02
56 | TAGACCGGGG | 1.07
57 | TGTTGGCAGT | 1.03
58 | TTACCCGTCG | 0.966
59 | CGTCTACCGA | 0.97
60 | TCCTGGCGGA | 1.03
61 | CTTGTGGTTG | 0.978
62 | GTGATTATAT | 0.963
63 | ATAAAATGCT | 0.989
64 | TGTTATGCAT | 1.08
65 | TGTTCAGTGG | 1.02
66 | TCGCCGATTA | 0.976
67 | GCGCGCAGGG | 1.03
68 | GTACAAGATT | 1.03
69 | AGGGTAAAT | 1.01
70 | CACAAATGGA | 0.957
71 | TGAGAAACGA | 0.998
72 | CAAAATGGAG | 0.968
73 | ACGTGTAAAG | 0.994
74 | TAACAGGGGA | 1.05
75 | AGAGTAAGCG | 0.988
76 | CCAGGGATTA | 1.01
77 | AACATCGTCA | 0.971
78 | GTTCGTCCGG | 1.05

Row | Sequence | switch fluorescence ratio
79 | TCAAGACGGG | 1.32
80 | ACTGGTGTTG | 1.01
81 | TGAATTTTCA | 1.03
82 | GTCACTGCGA | 1.09
83 | CCCCGGCGAC | 4.87
84 | TTGTAGGTT | 1
85 | CACAATGCTA | 1.23
86 | TAAATTTGTT | 1.01
87 | GCCCAGAAGA | 1.06
88 | TCTGACT | 1.02
89 | GAGGCGTACA | 1.02
90 | CCGTATATGA | 1.59
91 | GGTTCACAGC | 0.943
92 | TCTATTCAAA | 0.971
93 | CAGATGCGTG | 1.01
94 | CAGCGGTCGT | 1.06
95 | TAGCGGACAG | 1.05
96 | AACATTACCC | 1.13
97 | TTAAGGATAA | 1.02
98 | CATGGCTCCG | 1.1
99 | AGCCAGAGCT | 0.945
100 | TCCTTGATGG | 1.02
101 | GGGACCTTCA | 2.14
102 | TCGGTAGAAA | 1.09
103 | CCAACTTGTG | 1.04
104 | TGGTTCCAAT | 0.993

Row | Sequence | switch fluorescence ratio
105 | TGAAGAATTT | 1
106 | GTTTATCGAT | 1
107 | GATGGTTTAA | 0.988
108 | AACCGAACCA | 1.2
109 | TAGGGAGTGA | 0.925
110 | CCTCTTTCAG | 1.01
111 | TGTGTGGGGC | 0.969
112 | CGGATAAAAG | 0.98
113 | CGTAGTTACG | 1.04
114 | CTCAGGGCCC | 1.03
115 | TACGGGACTG | 1.03
116 | TGTGAGGAGG | 0.982
117 | TTATTGGAAG | 1
118 | GACATTATCC | 1.04
119 | GTTGGAAAAC | 1.02
120 | ACTTTAGTT | 0.975
121 | GCTGCCGTTA | 1.03
122 | TCCGGCAGTT | 1.18
123 | CTCATAAAGC | 1.04
124 | CAATTCATAA | 0.977
125 | TCTTCATGGG | 0.997
126 | CGTATTAGTC | 1.03
127 | CTCAGAGGCA | 1.02
128 | TGATAACAAT | 0.988
129 | GTAAAGGAGT | 0.963
130 | TTGAGGAACC | 0.968

Row | Sequence | switch fluorescence ratio
131 | GGTTCAGTAC | 1.17
132 | AAGGGGGCTC | 1.07
133 | AGGGGATGCC | 1.01
134 | GGGGGACGTG | 1.04
135 | TCTAAAAGTC | 0.996
136 | GCGAATGTGG | 0.983
137 | TGCTTAAA | 0.961
138 | TTACGTCCCA | 0.995
139 | TCTATGTCCA | 1.04
140 | CCACGTTGG | 1
141 | GAATGGAAG | 0.959
142 | CAAAGGTAGC | 0.96
143 | ATCAACACGA | 1.02
144 | CTCATATCAG | 0.99
145 | TGTGAAGGGA | 0.997
146 | ATGCCGGTTG | 0.956
147 | CTCTGCTAAG | 1.51
148 | AGTAGGCCAG | 0.961
149 | CCCAATTCGG | 1.08
150 | TTCTTGTATC | 0.964
151 | CTGACATAGC | 2.03
152 | CAATGCAGAT | 0.971
153 | ACATATATAT | 1.05
154 | CGTTGGCAGG | 0.976
155 | GCTCCCGGGT | 1.77
156 | CCTGTTTGGT | 0.952

Row | Sequence | switch fluorescence ratio
157 | CTAGTCCTAC | 1.02
158 | AAATCCATAG | 1
159 | CGTAATACAG | 1.21
160 | AGTCAACTGT | 1.01
161 | CACTGATTAC | 1.21
162 | CGCAATGGAA | 2.45
163 | GATAACATT | 0.998
164 | ACGTTGGTAG | 0.982
165 | GGACCATCTT | 1
166 | AAGAGCGTC | 1.01
167 | GGGCTAGACT | 1.05
168 | ATGTTTGTTG | 0.93
169 | TGCGCTCCAC | 1.34
170 | AAGTAGGGCA | 0.973
171 | TCCCGGTTGA | 1.05
172 | TCAGTGCGGT | 0.968
173 | CTCTCTTTTT | 0.984
174 | TGTAGGCGGG | 0.953
175 | GCCGGGGCGA | 1.04
176 | ACAGCCATTT | 1.05
177 | ACTGCACCC | 1.53
178 | CCGAGGTTAG | 1.56
179 | GGACAGGGTG | 1.04
180 | CAAGGAATTC | 0.977
181 | CGGGTAGATG | 1.06
182 | GCGGTTGCG | 0.939

Row | Sequence | switch fluorescence ratio
183 | GGGACTTGGT | 1.01
184 | TATTGAATAG | 0.966
185 | TCTAAGACGG | 0.983
186 | GTCCTCGACC | 0.974
187 | TTTCCTATTC | 1.03
188 | GGTAGGCACG | 1.06
189 | TAAGACCACC | 1.24
190 | TGTTTAATGG | 1.02
191 | AACGCGCCGT | 1.06
192 | GATATCGGGG | 0.999
193 | AAAAATTGGT | 1.02
194 | ATTAGTATGT | 0.965
195 | TTAGTGATAT | 0.994
196 | ACCACATCGA | 1.08
197 | TGCTTTACAA | 1.01
198 | TCATCGTAAT | 1.56
199 | AAGGTAGTCG | 1
200 | GAGGGCCCAA | 0.991
201 | TACACTATTG | 1
